Test results published in the supplement of paper PMC8728848.
Some of the results follow.

How the values were obtained:
Assay in all cases: glycan array binding signal (z-score within array); higher = stronger binding
Settings in all cases: glycan notation: IUPAC condensed, linker removed
[1] = target: Gal(b1-4)GlcNAc(b1-3)Gal(b1-4)GlcNAc(b1-3)Gal(b1-4)GlcNAc(b1-3)Gal(b1-4)GlcNAc(b1-3)Gal(b1-4)GlcNAc(b1-2)Man(a1-3)[Gal(b1-4)GlcNAc(b1-3)Gal(b1-4)GlcNAc(b1-3)Gal(b1-4)GlcNAc(b1-3)Gal(b1-4)GlcNAc(b1-3)Gal(b1-4)GlcNAc(b1-2)Man(a1-6)]Man(b1-4)GlcNAc(b1-4)GlcNAc
Summary of the method: (§1)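 Glycan array data were curated from 3228 arrays in the Consortium for Functional Glycomics database and kept only where the protein sequence was available. Glycan names were converted to IUPAC-condensed notation, and columns mapping to the same glycan were averaged. The binding signal is a within-array Z-score, averaged across arrays of the same protein sequence at different concentrations or buffers and across linkers. Negative Z-scores can be read as non-binding.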

[2] = target: Gal(b1-4)GlcNAc(b1-3)Gal(b1-4)GlcNAc(b1-3)Gal(b1-4)GlcNAc(b1-3)Gal(b1-4)GlcNAc(b1-3)Gal(b1-4)GlcNAc(b1-2)Man(a1-3)[Gal(b1-4)GlcNAc(b1-3)Gal(b1-4)GlcNAc(b1-3)Gal(b1-4)GlcNAc(b1-3)Gal(b1-4)GlcNAc(b1-3)Gal(b1-4)GlcNAc(b1-2)Man(a1-6)]Man(b1-4)GlcNAc(b1-4)[Fuc(a1-6)]GlcNAc
Summary of the method: as §1

[3] = target: Gal(b1-4)GlcNAc(b1-3)Gal(b1-4)GlcNAc(b1-3)Gal(b1-4)GlcNAc(b1-3)Gal(b1-4)GlcNAc(b1-3)Gal(b1-4)GlcNAc(b1-2)[Gal(b1-4)GlcNAc(b1-3)Gal(b1-4)GlcNAc(b1-3)Gal(b1-4)GlcNAc(b1-3)Gal(b1-4)GlcNAc(b1-3)Gal(b1-4)GlcNAc(b1-6)]Man(a1-6)[Gal(b1-4)GlcNAc(b1-3)Gal(b1-4)GlcNAc(b1-3)Gal(b1-4)GlcNAc(b1-3)Gal(b1-4)GlcNAc(b1-3)Gal(b1-4)GlcNAc(b1-2)Man(a1-3)]Man(b1-4)GlcNAc(b1-4)[Fuc(a1-6)]GlcNAc
Summary of the method: as §1

[4] = target: Gal(b1-4)GlcNAc(b1-3)Gal(b1-4)GlcNAc(b1-3)Gal(b1-4)GlcNAc(b1-3)Gal(b1-4)GlcNAc(b1-3)Gal(b1-4)GlcNAc(b1-3)Gal(b1-4)GlcNAc(b1-2)Man(a1-3)[Gal(b1-4)GlcNAc(b1-3)Gal(b1-4)GlcNAc(b1-3)Gal(b1-4)GlcNAc(b1-3)Gal(b1-4)GlcNAc(b1-3)Gal(b1-4)GlcNAc(b1-3)Gal(b1-4)GlcNAc(b1-2)Man(a1-6)]Man(b1-4)GlcNAc(b1-4)GlcNAc
Summary of the method: as §1

[5] = target: Gal(b1-4)GlcNAc(b1-3)Gal(b1-4)GlcNAc(b1-3)GalNAc
Summary of the method: as §1

[6] = target: Gal(b1-4)GlcNAc(b1-3)Gal(b1-4)GlcNAc(b1-3)[Gal(b1-4)GlcNAc(b1-3)Gal(b1-4)GlcNAc(b1-6)]GalNAc
Summary of the method: as §1

[7] = target: Gal(b1-4)GlcNAc(b1-3)Gal(b1-4)GlcNAc(b1-6)[Gal(b1-3)]GalNAc
Summary of the method: as §1

[8] = target: Gal(b1-4)GlcNAc(b1-3)Gal(b1-4)[Fuc(a1-3)]GlcNAc(b1-3)Gal(b1-4)[Fuc(a1-3)]GlcNAc
Summary of the method: as §1

[9] = target: Gal(b1-4)GlcNAc(b1-3)GalNAc
Summary of the method: as §1

[10] = target: Gal(b1-4)GlcNAc(b1-3)[Fuc(a1-3)GlcNAc(b1-6)]Gal(b1-4)Glc
Summary of the method: as §1

[11] = target: Gal(b1-4)GlcNAc(b1-3)[Gal(b1-4)GlcNAc(b1-6)]Gal(b1-4)GlcNAc
Summary of the method: as §1

[12] = target: Gal(b1-4)GlcNAc(b1-3)[Gal(b1-4)GlcNAc(b1-6)]GalNAc
Summary of the method: as §1

[13] = target: Gal(b1-4)GlcNAc(b1-3)[GlcNAc(b1-6)]Gal(b1-4)GlcNAc
Summary of the method: as §1

[14] = target: Gal(b1-4)GlcNAc(b1-6)Gal(b1-4)GlcNAc
Summary of the method: as §1

[15] = target: Gal(b1-4)GlcNAc(b1-6)Gal(b1-4)GlcNAc(b1-6)GalNAc
Summary of the method: as §1

[16] = target: Gal(b1-4)GlcNAc(b1-6)GalNAc
Summary of the method: as §1

[17] = target: Gal(b1-4)GlcNAc(b1-6)[Gal(b1-3)]GalNAc
Summary of the method: as §1

[18] = target: Gal(b1-4)GlcNAc(b1-6)[Gal(b1-4)GlcNAc(b1-3)]GalNAc
Summary of the method: as §1

[19] = target: Gal(b1-4)GlcNAc6P
Summary of the method: as §1

[20] = target: Gal(b1-6)Gal
Summary of the method: as §1

[21] = target: Gal3S(b1-3)GalNAc
Summary of the method: as §1

[22] = target: Gal3S(b1-3)GlcNAc
Summary of the method: as §1

[23] = target: Gal3S(b1-3)[Fuc(a1-4)]GlcNAc
Summary of the method: as §1

[24] = target: Gal3S(b1-4)Glc
Summary of the method: as §1

[25] = target: Gal3S(b1-4)Glc6S
Summary of the method: as §1

[26] = target: Gal3S(b1-4)GlcNAc
Summary of the method: as §1

[27] = target: Gal3S(b1-4)GlcNAc6S
Summary of the method: as §1

[28] = target: Gal3S(b1-4)[Fuc(a1-3)]Glc6S
Summary of the method: as §1

[29] = target: Gal3S(b1-4)[Fuc(a1-3)]GlcNAc
Summary of the method: as §1

[30] = target: Gal3S(b1-4)[Fuc(a1-3)]GlcNAc6S
Summary of the method: as §1

[31] = target: Gal3S4S(b1-4)GlcNAc
Summary of the method: as §1

[32] = target: Gal3S6S(b1-4)GlcNAc
Summary of the method: as §1

[33] = target: Gal3S6S(b1-4)GlcNAc6S
Summary of the method: as §1

[34] = target: Gal4S(b1-4)GlcNAc
Summary of the method: as §1

[35] = target: Gal4S6S(b1-4)GlcNAc
Summary of the method: as §1

[36] = target: Gal6P(b1-4)GlcNAc
Summary of the method: as §1

[37] = target: Gal6S(b1-3)GlcNAc
Summary of the method: as §1

[38] = target: Gal6S(b1-3)GlcNAc6S
Summary of the method: as §1

[39] = target: Gal6S(b1-4)Glc
Summary of the method: as §1

[40] = target: Gal6S(b1-4)Glc6S
Summary of the method: as §1

[41] = target: Gal6S(b1-4)GlcNAc
Summary of the method: as §1

[42] = target: Gal6S(b1-4)GlcNAc6S
Summary of the method: as §1

[43] = target: GalNAc(a1-3)Gal
Summary of the method: as §1

[44] = target: GalNAc(a1-3)GalNAc
Summary of the method: as §1

[45] = target: GalNAc(a1-3)GalNAc(a1-3)Gal(a1-4)Gal(b1-4)GlcNAc
Summary of the method: as §1

B1: WGA (Triticum vulgare) (protein)
chain: QRCGEQGSNMECPNNLCCSQYGYCGMGGDYCGKGCQNGACWTSKRCGSQAGGATCPNNHCCSQYGHCGFGAEYCGAGCQGGPCRADIKCGSQSGGKLCPNNLCCSQWGFCGLGSEFCGGGCQSGACSTDKPCGKDAGGRVCTNNYCCSKWGSCGIGPGYCGAGCQSGGCDAVFAGAITANSTLLAE
[1]
  glycan array binding signal (z-score): 0.112
[2]
  glycan array binding signal (z-score): 0.223
[3]
  glycan array binding signal (z-score): 0.244
[4]
  glycan array binding signal (z-score): 0.072
[5]
  glycan array binding signal (z-score): 0.012
[6]
  glycan array binding signal (z-score): 0.058
[7]
  glycan array binding signal (z-score): -0.072
[8]
  glycan array binding signal (z-score): -0.337
[9]
  glycan array binding signal (z-score): -0.349
[10]
  glycan array binding signal (z-score): -0.275
[11]
  glycan array binding signal (z-score): -0.18
[12]
  glycan array binding signal (z-score): 1.38
[13]
  glycan array binding signal (z-score): 1.62
[14]
  glycan array binding signal (z-score): 0.334
[15]
  glycan array binding signal (z-score): 1.21
[16]
  glycan array binding signal (z-score): 1.02
[17]
  glycan array binding signal (z-score): -0.191
[18]
  glycan array binding signal (z-score): -0.248
[19]
  glycan array binding signal (z-score): -0.265
[20]
  glycan array binding signal (z-score): -0.357
[21]
  glycan array binding signal (z-score): -0.365
[22]
  glycan array binding signal (z-score): -0.339
[23]
  glycan array binding signal (z-score): -0.336
[24]
  glycan array binding signal (z-score): -0.343
[25]
  glycan array binding signal (z-score): -0.354
[26]
  glycan array binding signal (z-score): -0.265
[27]
  glycan array binding signal (z-score): -0.263
[28]
  glycan array binding signal (z-score): -0.202
[29]
  glycan array binding signal (z-score): -0.345
[30]
  glycan array binding signal (z-score): -0.264
[31]
  glycan array binding signal (z-score): -0.074
[32]
  glycan array binding signal (z-score): -0.383
[33]
  glycan array binding signal (z-score): -0.356
[34]
  glycan array binding signal (z-score): 0.744
[35]
  glycan array binding signal (z-score): -0.388
[36]
  glycan array binding signal (z-score): -0.418
[37]
  glycan array binding signal (z-score): -0.372
[38]
  glycan array binding signal (z-score): -0.395
[39]
  glycan array binding signal (z-score): -0.342
[40]
  glycan array binding signal (z-score): -0.321
[41]
  glycan array binding signal (z-score): -0.369
[42]
  glycan array binding signal (z-score): -0.371
[43]
  glycan array binding signal (z-score): 0.581
[44]
  glycan array binding signal (z-score): -0.302
[45]
  glycan array binding signal (z-score): -0.324
